In all, about 1,800 sequences were measured (“median log2 fold change of GCK-ALFA target abundance (FLAG IP / Myc IP barcode read proportion)”: median about 0.14, lowest 2% from about -0.84 on). The list shows a part of the results.
B1: traf2_out_13_95_1225 (protein)
chain: SEETNEKLRKVSNDMLDKAEAVLEALAAELAPHPELQPAMAAIRAAFRNQGIRAAIAQLRAAAAAFPEVAAALDAAAAELEAIRREAGKKVAEILKEEEE
B2: traf2_out_16_104_1415 (protein)
chain: SAAAQAEFDAIIAGLEAIAERAGRLANRAYKLMETASPEDRVKLSDLLVEASELRREALAAAEAVRAARAAGGDLAEARATLAALEARLEALEKRLKELE
B3: traf2_out_11_169_786 (protein)
chain: EEKEKNRKYNDFALEKEDEAKKKLEEFALALAKEAGLDVEEVKKIFEENKGKSLSAIAAALIDYFKSKGNEAVAQAVLEKYEELKEEINKKSSEFLKELE
B4: traf2_out_20_3_2061 (protein)
chain: SELEKKLQEELDKALKLLKEAAKAADPETAKKLKELAKKLKASKELSYEDRLVELSEIRRELLELAEKAKAAGDEELAALLEEAADALNKAMQLTYEIIK
B5: traf2_out_11_131_656 (protein)
chain: MDAVAMAESAAERVDERLEIAKTLSPEERLRLARQSLDSLEALAEYLKEHVKEMSKEDVEKAAKILRESAEKILEFSPEVEEEAKEVEEAIKKLLEAAKA
B6: traf2_out_8_174_2562 (protein)
chain: SEREILKKAANLGLEYQNKIDEIKEKRKELEKKSLEEAVEYTEKEGKKLLEEIDKDAEEAKKTLDEETYKAVNRVLNSARTRTENLIKGTKIMAAAKKAA
B7: traf2_out_12_50_974 (protein)
chain: SEEEEEEEENEEFRKLAEEVEKKADEILEKTNGDPEKIIELAKEAAKKGLEELSLYVNAVRTIYTQRYIRGEKPEEWAKVLEEVEKILAEKEEKEEEEKK
B8: traf2_out_20_38_2010 (protein)
chain: SEEEKEKEKLEKLVEVANEAYDKYSAEFEKWKAEGKTVEEIAEEVKKRVKEKLSAAGLEEEAKILIEDIDLALSSPNAWRLLVRTLARADALVKQKELNK
B9: traf2_out_17_178_1744 (protein)
chain: SKEEILKKISEYADEMLDVSREAAERLREIAEREGVLTPELRRRLEEVARNSNLYAFEEVADEVIARTSSAEEVQKLKDETAAKLKELNKKIQELVEKYE
B10: traf2_out_18_117_1801 (protein)
chain: GEIEKAKKEFEKAVKAFEEVRTRAQRVAGQLIERHPHNLPQAATDAMVRFGEAKRRFNLLVQEAKENENDLEKLKKIVEEVKKLTEEMKAILAELEALLA
B11: traf2_out_8_15_2549 (protein)
chain: SIKEAAEKDIARLRALSDGDVESLINTLLGTAKAELRYAKILAEEGRKEEALRSLEAAEVYANAALELAKEAGSPNLEEIKKEVEKILKEIEKLKKEIKA
B12: traf2_out_9_108_2581 (protein)
chain: MSREEKLEEIFKKVLELVDEFKAENELTPEQRESLDAAIEQAEKLYEAGEKRTAIVLLAIDLARIASEVGEEALKKLLEKLKEIDPIAASAAERMAKLLK
B13: traf2_out_17_178_1709 (protein)
chain: TKEEARKKISEATDEMIDLARAAAARLLEIARREGSLSPEELAALERARRLGSARTTIALMRRAIPLLPSADEVRALLDDFEARYKELSKKIAEALKEYE
B14: traf2_out_18_167_1848 (protein)
chain: EEEIRAKREELSDRLVQLSEVKRAARAALQALDTDPATVPATLAKLEAAAASIPELQPLVAAAKAALAAGDREALRATLEALIAKAQALMNETLAEYEAL
B15: traf2_out_6_3_2529 (protein)
chain: SEEKLREDARTILENMGITTAEQLLRLVKAEVNAVKQLVSRPDVDRADLAGARSVLALTRAMVEVAAETLPSLTPEQAEEALALIDETEKLVEKREKELE
B16: traf2_out_18_117_1800 (protein)
chain: SALEKAQAEFEKTSKEFEEALSEAQRVATQLIEKYPKALPSEATDALVRFGEVKRKAAQLKQEAKANPNDLEKQKEIVEQLKKLLKEAKEIKEKLEEILK
B17: traf2_out_6_156_2414 (protein)
chain: MVEKIFEEAMKKIKEEIKKLAEASEEKKIQYISKIAGTAYRALQELREAGASLEEIEEFSKRLSEEAKKEAKKAGLPEDVINLLMSALNAVFDVAIAEAK
B18: traf2_out_19_16_1965 (protein)
chain: PEEELERLRRELEEIRREVEELERYFEENEETLTREELSDLLVRVSELKRRALEILQRLEELEPYDPEEVERLRREAEEVIRRAQRLMNRLVEKYEELLK
B19: traf2_out_1_158_912 (protein)
chain: DTKKKLMLSSVELVVKDAVESARENGDEETAKAIEELGEKIIELVKKLAIEEGKSVEEVIEEIDKLAAEFKAKADPETAAAIERLTRRVKSALRQVEKLM

Target: T1, TRAF2, Q12933
T1 chain: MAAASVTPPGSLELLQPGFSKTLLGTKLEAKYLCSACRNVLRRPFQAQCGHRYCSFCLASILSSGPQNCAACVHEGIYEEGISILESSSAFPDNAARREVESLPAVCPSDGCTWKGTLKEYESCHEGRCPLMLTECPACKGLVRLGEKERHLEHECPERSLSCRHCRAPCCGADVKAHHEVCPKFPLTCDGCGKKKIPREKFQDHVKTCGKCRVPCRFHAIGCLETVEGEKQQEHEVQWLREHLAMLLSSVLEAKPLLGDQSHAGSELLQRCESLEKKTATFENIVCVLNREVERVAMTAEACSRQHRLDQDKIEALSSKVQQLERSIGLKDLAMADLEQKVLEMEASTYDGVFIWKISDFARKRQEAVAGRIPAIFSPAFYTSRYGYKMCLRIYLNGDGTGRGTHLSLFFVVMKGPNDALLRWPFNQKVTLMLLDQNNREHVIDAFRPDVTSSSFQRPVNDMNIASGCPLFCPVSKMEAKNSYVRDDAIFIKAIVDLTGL
Assay: median log2 fold change of GCK-ALFA target abundance (FLAG IP / Myc IP barcode read proportion) (log2 ratio); each designed protein is fused to an ALFA-tag nanobody in HEK293 cells to bring the named protein to FLAG-tagged glucokinase (GCK); Myc marks an untargeted standard; higher = target protein stabilised (more abundant)
Details: target protein: 3xFLAG-MCP-GCK-ALFA reporter; HEK293 landing pad (RPLP)
How it was run: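 Sequencing of reverse-transcribed, amplified circular RNA barcodes from anti-FLAG and anti-Myc immunoprecipitates provided the readout for an ALFA-nanobody-fused binder library recombined into HEK293 landing-pad cells. Those cells were induced with 2 μg mL^−1 doxycycline, transfected with a plasmid expressing a FLAG-tagged target and a Myc-tagged standard, and lysed after 48 h. Target abundance is the per-binder median log2 ratio of FLAG to Myc barcode read proportions. Only barcodes at a proportion of ≥10^−7 in both replicates and binders with ≥3 barcodes per replicate were kept, with a 10^−6 pseudocount added before the two replicates were pooled.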

Row | Binder | median log2 fold change
1 | B1 | 0.0407
2 | B2 | 0.3
3 | B3 | 0.407
4 | B4 | 0.112
5 | B5 | 0.344
6 | B6 | 0.234
7 | B7 | 0.047
8 | B8 | -1.49
9 | B9 | 0.11
10 | B10 | 0.222
11 | B11 | 0.339
12 | B12 | 0.147
13 | B13 | -0.447
14 | B14 | 0.169
15 | B15 | -0.16
16 | B16 | 0.246
17 | B17 | -0.000683
18 | B18 | 0.144
19 | B19 | 0.0872

Source: the supplement of paper PMC12632987
